Laboratory results as given in PubChem BioAssay (Tox21).
Values joined by “and” are separate entries in the source; they are usually repeats but may differ in a detail not shown here. Identical values can stand only once. This list was built around the results that the source calls inconclusive (neither active nor inactive); the mix of calls is not that of the screen. Potencies of inconclusive entries are doubtful fits and often do not repeat. Where a structure was tested more than once in an assay, its records may differ in their call. Active and inactive are the calls of the source. Calls come from the whole dose curve; as a rule, active = well fitted cell-killing curve with a large enough effect in the repeat runs; inconclusive = weak or mixed curves; inactive = flat fitted curve, though single readings scatter.

test: qHTS assay to identify small molecule antagonists of the estrogen related receptor (ERR) signaling pathway from Tox21 library - cell viability counter screen (AID 1224834); details: ERR reporter cells viability, CellTiter-Fluor, 17.5 h; series mostly up to 92.4 µM; note: nearly all actives have a fitted effect of over 30% in size
Text: National Center for Advancing Translational Sciences [NCATS]
NIH Chemical Genomics Center [NCGC]
U.S. Environmental Protection Agency [EPA]
National Institutes of Environmental Health Sciences [NIEHS]
National Toxicology Program [NTP]
U.S. Food and Drug Administration [FDA]
Estrogen related receptors (ERRs), the first orphan nuclear receptors discovered, play an important role in the control of cellular energy metabolism. ERRs are required for high-energy production in response to the environmental challenges. ERR-alpha was also identified as an adverse marker for breast cancer progression; ERR-alpha-positive tumors have a poor prognosis. To screen and to identify environmental compounds that perturb the ERR signaling pathways could provide valuable information for potential therapeutic or preventive measures in the treatment of metabolic disease. To differentiate true ERR antagonists or agonist from cytotoxic substances, the assay is multiplexed with cell viability assay.
Tox21 Assay Protocol Summary:
The ERR cells were dispensed at 2,000 cells/5 ul/well in 1536-well white plates using a Multidrop dispenser. After the assay plates were incubated at a 37 C/5% CO2 incubator for 6 hours, 23 nL of compounds dissolved in DMSO, positive and negative controls or DMSO only was transferred to the assay plate by a pin tool. The plates were incubated at 37 C for 17.5 hours. 1 ul/well of CellTiter-Fluor reagent was added into the assay plates using a Flying Reagent Dispenser. After 30-minute incubation at 37 C/5% CO2, the fluorescence intensity in the plates was measured using a ViewLux plate reader.
Potency is the fitted concentration of half-maximal effect; tags give direction and shape of the fitted curve.

SMILES	Potency
O=C(OC1CCCCC1)c1ccccc1C(=O)OC1CCCCC1	inconclusive: 81.1 µM [cytotoxic, single point]
C=CCc1cc(OC)c2c(c1)OCO2	inactive
SCc1ccco1	inconclusive: 68.6 µM [cytotoxic]
Clc1ccc(CO/N=C(\Cn2ccnc2)c2ccc(Cl)cc2Cl)c(Cl)c1	active: 26.6 µM
Nc1ccc(N=Nc2ccccc2)cc1	active: 24.3 µM
Oc1ccc2[nH]cc(CCCCN3CC=C(c4ccccc4)CC3)c2c1	inconclusive: 33.5 µM [cytotoxic, partial curve]
CC1CC(CC2CCC(N)C(C)C2)CCC1N (stereo not given)	inconclusive: 55.4 µM [cytotoxic, partial curve]
Nc1c(Cl)cc([N+](=O)[O-])cc1Cl	inconclusive: 68.6 µM [cytotoxic, single point]
CCCN(CCC)c1c([N+](=O)[O-])cc(S(C)(=O)=O)cc1[N+](=O)[O-]	inconclusive: 30.6 µM [cytotoxic, partial curve]
COC(=O)N(C(=O)N1CO[C@@]2(C(=O)OC)Cc3cc(Cl)ccc3C2=N1)c1ccc(OC(F)(F)F)cc1	inactive
COc1ccc(N)cc1N	inconclusive: 29.4 µM [cytotoxic, partial curve]
O=C(NC(=O)c1c(F)cccc1F)Nc1cc(Cl)c(OC(F)(F)C(F)C(F)(F)F)cc1Cl (stereo not given)	inconclusive: 38.6 µM [cytotoxic, partial curve, poor fit] and inactive
COc1ccc(Cc2nccc3cc(OC)c(OC)cc23)cc1OC	inconclusive: 13.3 µM [cytotoxic, full curve]
C[C@]12CCC(=O)C=C1CC[C@@H]1[C@@H]2CC[C@]2(C)C(=O)CC[C@@H]12	inconclusive: 67.4 µM [cytotoxic, single point] and inconclusive: 68.6 µM [cytotoxic, partial curve, poor fit]
CC(=[OH+])/C=C(/C)[O-].CC(=[OH+])/C=C(\C)[O-].CC(=[OH+])/C=C(\C)[O-].[Fe]	inactive
N#C/C=C/C#N	inconclusive: 71.8 µM [cytotoxic, single point]
C[C@H]1[C@H](c2ccc(Cl)cc2)SC(=O)N1C(=O)NC1CCCCC1	inconclusive: 77 µM [cytotoxic, single point]
CCCC1COC(Cn2cncn2)(c2ccc(Cl)cc2Cl)O1 (stereo not given)	active: 49.4 µM and active: 54.5 µM
Oc1c(Cl)c(Cl)cc(Cl)c1Cl	inconclusive: 74.8 µM [cytotoxic]
CCN(CC)c1c([N+](=O)[O-])cc(C(F)(F)F)c(N)c1[N+](=O)[O-]	inconclusive: 48.6 µM [cytotoxic, partial curve, poor fit]

SMILES	Potency
CCC[N+](=O)[O-]	active: 26.8 µM
c1ccc2c(c1)OCC(C1=NCCN1)O2 (stereo not given)	active: 21.1 µM
N#Cc1cc([N+](=O)[O-])ccc1N	inconclusive: 68.6 µM [cytotoxic, partial curve, poor fit]
C#CCC1=C(C)C(OC(=O)C2C(C=C(C)C)C2(C)C)CC1=O (stereo not given)	inconclusive: 76.4 µM [cytotoxic, single point]
CCC(COC(=O)c1cc(OC)c(OC)c(OC)c1)(c1ccccc1)N(C)C (stereo not given)	inconclusive: 33.5 µM [cytotoxic, partial curve]
COP(=O)(OC)O/C(=C/Cl)c1cc(Cl)c(Cl)cc1Cl	inconclusive: 51.3 µM [cytotoxic, partial curve]
O=[N+]([O-])[O-].[Tl+]	inconclusive: 61.6 µM [cytotoxic]
CN1C(=O)CN=C(c2ccccc2)c2cc(Cl)ccc21	inconclusive: 62.1 µM [cytotoxic, partial curve, poor fit]
Cc1cc(C)c(C(=O)P(=O)(c2ccccc2)c2ccccc2)c(C)c1	inconclusive: 61.1 µM [cytotoxic, partial curve]
BrCc1ccc(Br)cc1	inconclusive: 1.37 µM [cytotoxic, partial curve, poor fit]
CC(C)(C)c1ccc(CSc2cnn(C(C)(C)C)c(=O)c2Cl)cc1	inconclusive: 0.0386 µM [cytotoxic, full curve]
O=C(O)C(F)(F)C(F)(F)C(F)(F)C(F)(F)C(F)(F)C(F)(F)C(F)(F)C(F)(F)C(F)(F)C(F)(F)F	inactive
CC(C)c1c(CN(C)C(C)Cc2ccccc2)n(C)n(-c2ccccc2)c1=O (stereo not given)	inconclusive: 13.3 µM [cytotoxic, partial curve]
CC1COC2(c3ccccc3Cl)c3cc(Cl)ccc3NC(=O)CN12 (stereo not given)	inconclusive: 53.1 µM [cytotoxic, partial curve, poor fit]
O=S(=O)(O)C(F)(F)C(F)(F)C(F)(F)C(F)(F)C(F)(F)C(F)(F)C(F)(F)C(F)(F)F	inconclusive: 29.2 µM [cytotoxic, partial curve] and inconclusive: 27.3 µM [cytotoxic]
CCC1(CC)C(=O)N=C(O)NC1=O	inactive
CCCCCc1cc(O)cc(O)c1	inconclusive: 68.9 µM [cytotoxic, partial curve]
CCCCCON=O	inactive
Cc1cc(C)cc(OP(=O)(Oc2cc(C)cc(C)c2)Oc2cc(C)cc(C)c2)c1	inactive
COP(=S)(OC)SCn1nnc2ccccc2c1=O	inconclusive: 75.5 µM [cytotoxic, single point] and inconclusive: 77 µM [cytotoxic, single point]
